Results from the BET-seq Pho4 binding data (Le et al. 2018).
The other results are listed elsewhere or left out. The energies were worked out here from pooled read counts, against the library average; single values are noisy.

These sequences were tested against T1, Pho4 (S. cerevisiae) (UniProt P07270) (assay: relative binding free energy (BET-seq); higher = weaker binding). Conditions: reference: library average.
T1 sequence: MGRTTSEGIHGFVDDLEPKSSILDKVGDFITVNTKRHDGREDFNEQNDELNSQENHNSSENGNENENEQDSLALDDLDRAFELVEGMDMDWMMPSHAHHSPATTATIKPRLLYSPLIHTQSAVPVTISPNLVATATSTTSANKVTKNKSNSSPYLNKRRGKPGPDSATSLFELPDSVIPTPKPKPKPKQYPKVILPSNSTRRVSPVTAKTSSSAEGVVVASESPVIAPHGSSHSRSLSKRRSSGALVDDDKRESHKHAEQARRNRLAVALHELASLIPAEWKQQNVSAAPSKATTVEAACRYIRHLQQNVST

Sequence	relative binding free energy
GTTCGCACGTGGGGGG	-0.16 kcal/mol
GCTGGCACGTGGGGAG	-0.16 kcal/mol
GTGCACACGTGTGGGG	0.02 kcal/mol
GTCCGCACGTGGAGGG	-0.03 kcal/mol
TTTCTCACGTGTCTTT	0.29 kcal/mol
GTATTCACGTGGATAT	0.23 kcal/mol
TTTTACACGTGTGGCC	0.27 kcal/mol
AGAGTCACGTGAGTAG	0.31 kcal/mol
TTGTCCACGTGCAGGG	0.12 kcal/mol
GTGGTCACGTGCACAT	0.22 kcal/mol
CGTTTCACGTGCTAGT	0.25 kcal/mol
ACGTTCACGTGGGTAA	0.02 kcal/mol
GTGTACACGTGATAGA	0.2 kcal/mol
TCGTGCACGTGTAATT	0.08 kcal/mol
TGTTTCACGTGAGCAA	0.51 kcal/mol
GAGGTCACGTGTGGCA	0.24 kcal/mol
AGCGTCACGTGTAAGG	0.08 kcal/mol
AGGGGCACGTGTACTG	-0.18 kcal/mol
TGAGGCACGTGTGGAA	-0.04 kcal/mol
TTAGTCACGTGTGTTA	0.18 kcal/mol
GGGTTCACGTGATCGA	0.5 kcal/mol
TGGTACACGTGATGAG	0.24 kcal/mol
CGCTTCACGTGGGTAT	0.2 kcal/mol
CTTTACACGTGGTTTC	0.15 kcal/mol
GGTTTCACGTGGGAAA	0.25 kcal/mol

Sequence	relative binding free energy
AGGTTCACGTGGAATA	0.33 kcal/mol
CTTGGCACGTGGTGTC	-0.22 kcal/mol
GAGGGCACGTGCTTTT	-0.02 kcal/mol
AGTTACACGTGTTCTG	-0.03 kcal/mol
CGTGACACGTGGTAGG	-0.19 kcal/mol
TCGGTCACGTGAAATT	0.33 kcal/mol
CTGATCACGTGGGGTA	-0.11 kcal/mol
GACGGCACGTGTTGTA	-0.03 kcal/mol
TAGGCCACGTGTGGGG	-0.07 kcal/mol
CTGATCACGTGGGCGG	-0.1 kcal/mol
ACTATCACGTGTGTTG	0.08 kcal/mol
TCAGGCACGTGGAGTT	0.08 kcal/mol
GTCTTCACGTGTATTG	0.15 kcal/mol
TGTATCACGTGGTACG	-0.22 kcal/mol
GGGTTCACGTGCTTTT	0.32 kcal/mol
AAATACACGTGTAGGG	-0.05 kcal/mol
TGAGGCACGTGCGGAT	-0.06 kcal/mol
TGATGCACGTGGTTGG	-0.1 kcal/mol
ATGTTCACGTGTACTT	0.2 kcal/mol
TAAGGCACGTGTTTTG	-0.12 kcal/mol
GGTACCACGTGGGGTG	-0.19 kcal/mol
GCGGGCACGTGTTTAT	0 kcal/mol
AGGTACACGTGGTTCG	0.02 kcal/mol
CGTGGCACGTGGAGTC	-0.06 kcal/mol
AGTGTCACGTGATTTA	0.14 kcal/mol

Sequence	relative binding free energy
TAAGGCACGTGTGCTT	-0.1 kcal/mol
GGGAGCACGTGGGTCG	-0.21 kcal/mol
AGTTACACGTGAGTTC	0.39 kcal/mol
TAGACCACGTGTGTGT	-0.04 kcal/mol
GAGTACACGTGGGGCG	-0.08 kcal/mol
TTTATCACGTGATGGA	0.26 kcal/mol
AAGGGCACGTGCTAAT	0.07 kcal/mol
CTAGGCACGTGTTGCT	-0.08 kcal/mol
ATGCTCACGTGTTGGA	0.25 kcal/mol
GAGAGCACGTGGTATG	-0.12 kcal/mol
TGGTACACGTGGTCCG	0.08 kcal/mol
GGCGTCACGTGGTTTA	0.08 kcal/mol
TGGTCCACGTGGAGGG	-0.16 kcal/mol
AGTGTCACGTGTTGGA	0.1 kcal/mol
ATGCTCACGTGGCGTT	0.18 kcal/mol
GAGCGCACGTGGAAGG	0.1 kcal/mol
TGCGGCACGTGCAATG	0.11 kcal/mol
TGTGGCACGTGTGAAA	0 kcal/mol
AGTGTCACGTGCCTGT	-0.04 kcal/mol
TAGTCCACGTGAATGT	0.34 kcal/mol
AATTTCACGTGTGCAT	0.37 kcal/mol
ATTAACACGTGGTCTG	-0.1 kcal/mol
TAGAGCACGTGAAGTA	0.24 kcal/mol
TGCGACACGTGGTGTT	-0.07 kcal/mol
TAATACACGTGTTTTT	0.03 kcal/mol

Sequence	relative binding free energy
GCTAACACGTGTGGTA	0.14 kcal/mol
AGTGGCACGTGTTTTC	-0.07 kcal/mol
TTAACCACGTGGGGGG	-0.15 kcal/mol
AGTATCACGTGGTATT	0.13 kcal/mol
TGATGCACGTGGGCTT	-0.25 kcal/mol
TTATGCACGTGTATAT	-0.06 kcal/mol
TTGACCACGTGGAGGG	-0.19 kcal/mol
CGGTTCACGTGTTGTG	0.13 kcal/mol
GTATTCACGTGGTGTT	0.3 kcal/mol
CTTTTCACGTGTGCTG	0.15 kcal/mol
AGTATCACGTGGTGGG	0.13 kcal/mol
ATGGACACGTGTGCTT	0.04 kcal/mol
ATTGTCACGTGTGATC	0.13 kcal/mol
TGGGGCACGTGCCCGG	-0.31 kcal/mol
CATGTCACGTGAGGAA	0.39 kcal/mol
GTTATCACGTGGCTTA	0.08 kcal/mol
TAGGTCACGTGTTGGT	0.14 kcal/mol
GTTAGCACGTGGTCGG	-0.21 kcal/mol
TATGTCACGTGTAACG	0.06 kcal/mol
TGGTACACGTGTAACG	0.28 kcal/mol
GTTTCCACGTGTAGTT	0.31 kcal/mol
GATTGCACGTGGCTGG	-0.09 kcal/mol
CAGGTCACGTGTGGCT	0.12 kcal/mol
GTTTGCACGTGATGGT	0.08 kcal/mol
ATCGTCACGTGAGTAG	0.29 kcal/mol

Sequence	relative binding free energy
TTAAACACGTGAGATT	0.3 kcal/mol
TATGTCACGTGTAGGA	0.15 kcal/mol
GTTGTCACGTGCGTAG	0.15 kcal/mol
GTTTACACGTGTGGAG	0.24 kcal/mol
TTATGCACGTGTCATG	-0.13 kcal/mol
TGTATCACGTGCCTTG	0.14 kcal/mol
TATTGCACGTGTGCTT	0.03 kcal/mol
GATGTCACGTGTGGAA	0.29 kcal/mol
TGCTCCACGTGGGTAG	-0.06 kcal/mol
GTGCACACGTGTTGTG	-0.03 kcal/mol
TACTGCACGTGGTGTT	-0.24 kcal/mol
CGAGGCACGTGATGGG	-0.07 kcal/mol
GGAAGCACGTGTTAAG	-0.04 kcal/mol
TATTTCACGTGAGTTC	0.39 kcal/mol
TGGATCACGTGGTCCG	0.22 kcal/mol
TGATACACGTGGGGAA	-0.11 kcal/mol
AATAACACGTGGTGAA	0.01 kcal/mol
ACAGGCACGTGCGGGT	-0.13 kcal/mol
TTGAACACGTGTCTAT	0.1 kcal/mol
TGGGGCACGTGGTTGG	-0.07 kcal/mol
AGTTTCACGTGAGAGG	0.48 kcal/mol
TTTACCACGTGAAGTT	0.18 kcal/mol
CTGGTCACGTGAAGTT	0.35 kcal/mol
GCTGTCACGTGTAAGT	0.19 kcal/mol
TATTGCACGTGCGTAT	-0.01 kcal/mol

Sequence	relative binding free energy
GTGTGCACGTGAGGAG	0.23 kcal/mol
GATGTCACGTGAAGTA	0.28 kcal/mol
TGTGCCACGTGTACGT	-0.05 kcal/mol
GGTCTCACGTGTACTG	0.5 kcal/mol
TGGTACACGTGGGCCA	-0.08 kcal/mol
ATTATCACGTGATGTC	0.2 kcal/mol
AGTAGCACGTGACAGG	0.01 kcal/mol
CGTTGCACGTGGGTGT	-0.09 kcal/mol
CGGTACACGTGGGGCT	-0.24 kcal/mol
TGTGCCACGTGTGGGA	-0.11 kcal/mol
GTGCCCACGTGGTGGA	-0.11 kcal/mol
AAGTACACGTGGTTTG	0.07 kcal/mol
GAGGTCACGTGATTGT	0.33 kcal/mol
CGTGGCACGTGATGCG	0.01 kcal/mol
TGATCCACGTGGTGAT	0.1 kcal/mol
AAAATCACGTGATTGT	0.23 kcal/mol
TTAATCACGTGGATTA	0.02 kcal/mol
AGTTTCACGTGGCGTG	0.21 kcal/mol
CTGTACACGTGCGGGT	0.11 kcal/mol
TGTTTCACGTGATTCT	0.32 kcal/mol
AGGGTCACGTGGAACG	0.03 kcal/mol
